In PubChem BioAssay AID1745853 (National Center for Advancing Translational Sciences (NCATS), 2022):
Where “and” joins values, the source holds several entries; their conditions need not be identical. Equal values may be shown once. Some of the results follow. The main result of the screen is listed elsewhere. These columns were measured beside it and carry no call.

Legend:
Test in all cases: Primary Screen for Target Class Profiling of Small Molecule Inhibitors of Methyltransferases
[1] = target: Glycine N-methyltransferase (Homo sapiens) (UniProt Q14749); details: purified enzyme, MTase-Glo SAH luminescence; measured here: GNMT inhibition; at 40 µM; stronger effect = lower value
How it was run: (§1)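 Each enzyme was assayed with SAM and its substrate. SAH formation detected by MTase-Glo luminescence; single-point 40 uM screen[…].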

[2] = target: Guanidinoacetate N-methyltransferase (Homo sapiens) (UniProt Q14353); details: purified enzyme, MTase-Glo SAH luminescence; measured here: GAMT inhibition; at 40 µM; stronger effect = lower value
How it was run: as §1

[3] = target: Histamine N-methyltransferase (Homo sapiens) (UniProt P50135); details: purified enzyme, MTase-Glo SAH luminescence; measured here: HNMT inhibition; at 40 µM; stronger effect = lower value
How it was run: as §1

[4] = target: Nicotinamide N-methyltransferase (Homo sapiens) (UniProt P40261); details: purified enzyme, MTase-Glo SAH luminescence; measured here: NNMT inhibition; at 40 µM; stronger effect = lower value
How it was run: as §1

[5] = target: Phenylethanolamine N-methyltransferase (Homo sapiens) (UniProt P11086); details: purified enzyme, MTase-Glo SAH luminescence; measured here: PNMT inhibition; at 40 µM; stronger effect = lower value
How it was run: as §1
% is scaled to controls: 0 for no effect and ±100 for the full control effect.

Structure (SMILES)	activity change, negative = inhibition [1]	activity change, negative = inhibition [2]	activity change, negative = inhibition [3]	activity change, negative = inhibition [4]	activity change, negative = inhibition [5]
O=C(O)CCc1c(C(=O)O)[nH]c2cc(Cl)cc(Cl)c12	-1.28%	4.59%	12.3%	-4.46%	8.96%
CCNC(=O)N1C[C@H]2OC(=O)N(Cc3ccc(OC)c(OC)c3)[C@H]2C1	-0.636%	0.536%	-0.538%	4.35%	3.23%
CCC1c2ccc(C)n2CCN1C(=O)Nc1ccc(C)cc1 (stereo not drawn)	-0.577%	0%	-1.76%	-5.97%	0.15%
O=C(Cn1ccc2cc(S(=O)(=O)N3CCCCC3)ccc21)NCc1cccs1	4.29%	4.03%	-3.45%	0.806%	-0.331%
CC[C@H]1OC(=O)[C@H](C)[C@@H](O[C@H]2C[C@@](C)(OC)[C@@H](O)[C@H](C)O2)[C@H](C)[C@@H](O[C@@H]2O[C@H](C)C[C@H](N(C)C)[C@H]2O)[C@](C)(O)C[C@@H](C)C(=O)[C@H](C)[C@@H](O)[C@]1(C)O		-17.3%		-20.2%	-2.57%
CC(C)c1nc(-c2ccc(OC3CCNC3)cc2)no1 (stereo not drawn)	-3.84%	-4.61%	-27.9%	-7.07%	-9.87%
CC(C)CCN1CC(Oc2ccc(F)cc2F)C1	-3.78%	-2.33%	0.584%	-7.76%	-5.57%
CCc1nc(CN2CCOC(c3ccc4cc(OC)ccc4c3)C2)no1 (stereo not drawn)	-6.73%	-5.06%	-3.59%	-7.32%	-9.57%
Cc1cc(CNS(=O)(=O)c2ccc3c(c2)CCN(C(=O)C(O)C(C)C)C3)no1 (stereo not drawn)	-2.32%	-5.5%	-0.285%	-1.41%	-1.03%
Cc1ccc(NC(=O)c2sc(=S)n3c2[nH]c(=O)c2cc(Cl)ccc23)c(C)c1	-10.6%	0%	8.53%	-1.47%	-4.24%
FC(F)(F)c1cc(C(F)(F)F)c2ccc3nc(-c4nnco4)cn3c2n1	-0.152%	-7.28%	7.79%	-17.8%	-1.3%
CCc1nn(CCO)c(CC)c1Oc1cc(C#N)cc(C#N)c1	-2.67%	-8.07%	6.32%	-20.3%	-1.99%
O=C(O)CCCc1c[nH]c2ccccc12	-1.94%	-6.37%	11.3%	-10.4%	3.08%
O=C(c1cc(Cc2n[nH]c(=O)c3ccccc23)ccc1F)N1CCN(C(=O)C2CC2)CC1	-11.9% and -8.64%	-3.94%	0.172% and 12%	-20.5% and -3.38%	-6.85% and 4.57%
Clc1ccc(-c2nnn3c2nc(NCc2ccccc2)c2ccccc23)cc1	-1.04%	1.37%	1.96%	-1.34%	-4.74%
CC(C)[C@@H](C)/C=C/[C@@H](C)[C@H]1CC[C@H]2C3=CC=C4C[C@@H](O)CC[C@]4(C)[C@H]3CC[C@]12C	0.284%	1.97%	8.58%	-9.43%	3.81%
COCCOC(=O)C1=C(C)NC2=C(C(=O)CC(c3ccccc3OC)C2)C1c1cccc(O)c1 (stereo not drawn)	-7.11%	2.13%	-2.35%	-19.6%	-4.49%
Cc1ccc(C2(O)CCN(c3nc(C)ccc3C(N)=O)CC2)nc1	-3.19%	1.12%	0.62%	-1.82%	-15.9%
CC1(C(=O)NCc2ccccc2Cl)Cn2cnc(C(=O)NCc3cccc(F)c3)c2C(=O)N1C1CC1 (stereo not drawn)	-0.175%	0.863%	5.49%	0.046%	4.71%
CC(=O)O[C@@H]1CC2C(/C=C(\C)C(=O)[C@@]3(O)C[C@@H](C)[C@H](OC(=O)c4ccccc4)C3/C=C/1C)C2(C)C (stereo partly drawn)	-1.02%	-1.94%	4.93%	-14.6%	-5.31%

Structure (SMILES)	activity change, negative = inhibition [1]	activity change, negative = inhibition [2]	activity change, negative = inhibition [3]	activity change, negative = inhibition [4]	activity change, negative = inhibition [5]
CCCn1c(=O)c2cc(Cl)ccc2n2c(SCC(=O)NCc3ccccc3)nnc12	-1.34%	-3.15%	15%	-2.61%	-0.451%
COc1cc(O)c2c(c1)/C=C/C[C@H](O)[C@H](O)C(=O)/C=C\C[C@H](C)OC2=O	-40.1%	-8.8%	4.58%	-13.3%	3.87%
Clc1ccc2c(c1)C(N1CCNCC1)=Nc1ccccc1O2	1.13% and 2.41%	3.6% and 13.3%	10.1% and 0.182%	-14.5% and -12.7%	2.75% and 7.79%
O=S(=O)(c1ccccc1)N1CCC(F)(c2nc(-c3ccncc3)no2)CC1	-6.45%	-11.7%	-6.26%	-2.67%	-16%
COc1ccc(CNC(=O)C2(C)Cn3cnc(C(=O)Nc4ccc(F)cc4Cl)c3C(=O)N2C2CC2)cc1 (stereo not drawn)	0.525%	0.032%	11.4%	0.944%	5.88%
CCCOc1ccc2c(-c3ccccc3)cc(=O)oc2c1	-3.29%	0.799%	6.55%	-10.9%	-10.6%
Cc1ccc(C)c(CNC(=O)c2ncn3c2C(=O)N(C2CC2)C(C)(C(=O)NCc2ccc(F)cc2)C3)c1 (stereo not drawn)	-3.3%	1.29%	4.68%	3.37%	1.95%
CC(C)Nc1cc(C(F)(F)F)cc2nc(NC(=O)c3cccnc3)nn12	3.91%	7.46%	12.3%	-11.2%	4.75%
CCOc1ccc(NC(=O)c2ncn3c2C(=O)N(C2CC2)C(C)(C(=O)NCc2ccccc2OC)C3)cc1 (stereo not drawn)	-2.96%	0%	10.2%	5.8%	2.14%
CC1CCCCC1NC(=O)C1(C)Cn2c(cc3sccc32)C(=O)N1Cc1ccccc1F (stereo not drawn)	-7.25%	2.73%	-4.82%	-3.41%	-6.58%
O=C(O)CCc1nc(-c2ccccc2)c(-c2ccccc2)o1	-13.8% and -24.3%	0.312% and 0.324%	3.58% and -4.83%	-26.3% and -19.7%	0.717% and -2.77%
Cc1ncc([N+](=O)[O-])n1CC(O)CN1CCOCC1 (stereo not drawn)	5.82%	6.79%	10.7%	-1.78%	7.06%
C#CCOc1ccccc1CN1CCN(c2ncc(F)cn2)CC1	-9.5%	-4.8%	-15.6%	-19%	-12.8%
CCCNC(=O)c1cc2n(n1)CC(C)(C(=O)NCc1ccc(C)cc1)N(C)C2=O (stereo not drawn)	5.78%	0.97%	3.2%	7.03%	5.48%
O=C1COc2ccc(OCc3cncs3)nc2CN1Cc1ccc(F)cc1	-21.8%	-13.1%	-19%	-24.9%	-13.2%
COc1ccc(Cn2c(=O)c3ccccc3n3c(-c4ccc(OC)cc4)nnc23)cc1	-7.28%	0%	2.04%	-2.94%	0.762%
CC(C)OCCCN1C(=O)c2cc(-c3ccccc3)nn2CC1(C)C(=O)NCc1ccccc1 (stereo not drawn)	5.01%	1.16%	5.36%	6.8%	-0.219%
CCOC(=O)c1cc2n(n1)CC(C)(C(=O)NCc1ccccc1)N(Cc1ccc(C)cc1)C2=O (stereo not drawn)	-3.63%	0.489%	-1.43%	-4.25%	-3.98%
CCOCCn1c(=O)[nH]c2cc(C(=O)NCCn3cnnc3)ccc21	-0.346%	-1.26%	1.66%	-4.77%	-0.527%
Clc1ccc(-c2nnn3c2nc(Cl)c2ccccc23)cc1	-14.5%	0.705%	-0.651%	1.63%	-11.6%

Structure (SMILES)	activity change, negative = inhibition [1]	activity change, negative = inhibition [2]	activity change, negative = inhibition [3]	activity change, negative = inhibition [4]	activity change, negative = inhibition [5]
O=C1CN(Cc2cccc(Br)c2)S(=O)(=O)c2ccccc2N1Cc1ccc(F)cc1	15.8%	3.21%	13.1%	4.96%	9.59%
O=C(Cn1ccc2cc(S(=O)(=O)N3CCCCC3)ccc21)NC1CCCC1	7.15%	0.02%	7.6%	-0.14%	2.23%
CCCn1c(=O)c2ccc(Cl)cc2n2c(=O)n(CC(=O)Nc3cccc(Cl)c3)nc12	3.14%	0%	5.4%	3.05%	-0.713%
CC1(C)[C@@H](O)CC[C@]2(C)[C@H]3CC=C4[C@@H]5C[C@](C)(C(=O)O)CC[C@]5(C)CC[C@@]4(C)[C@]3(C)CC[C@@H]12	-17.5%	-43.2%	-3.06%	-91.9%	-57.1%
Cc1noc2nc3c(c(C(=O)N[C@H]4CC[C@H]4N)c12)CCC3	-0.123%	0.178%	0.87%	4.22%	5.82%
N#Cc1cc(CN2CCCC(C(=O)Nc3cccc(-c4ccc(F)cc4)c3)C2)c[nH]1 (stereo not drawn)	-7.79%	-10.3%	-59.6%	-13.7%	-10.4%
c1cc(-c2cc(C3CCNCC3)[nH]n2)ccn1	-4.72%	-7.58%	-0.752%	-16.1%	-14%
CCCn1c(=O)c2cc(Cl)ccc2n2c(SCC(=O)Nc3ccc(OC)cc3)nnc12	4.23%	0%	12.2%	10.6%	7.74%
O=C(COC(=O)C(Cc1c[nH]c2ccccc12)NC(=O)c1ccco1)c1ccc(Cl)cc1 (stereo not drawn)	-0.414%	1.76%	-0.552%	-4.3%	-0.572%
CCCCN1C(=O)c2ccccc2C(C(=O)NC2CC2)C12CCCCC2 (stereo not drawn)	-8.93%	-12.2%	-7.33%	-17.1%	-14.3%
CCOC(=O)c1cccc(NS(=O)(=O)c2ccc3[nH]c(=O)[nH]c3c2)c1	-4.04%	2.13%	-7.37%	-10.3%	-14.9%
NCCCCC(=O)O	-0.355%	7.57%	3.62%	-7.13%	-0.457%
CCCCN(CC)CCN1C(=O)c2cc3occc3n2CC1(C)C(=O)NC1CCCCCC1 (stereo not drawn)	7.05%	0%	1.74%	7.07%	3.64%
O=C(NCC1CC1)C1CCc2ncc(-c3ccc(F)cc3)n2C1 (stereo not drawn)	-0.481%	-1.99%	-8.1%	-3.04%	2.4%
CC(C)=CCC[C@](C)(O[C@@H]1O[C@H](CO)[C@@H](O)[C@H](O)[C@H]1O)[C@H]1CC[C@]2(C)[C@@H]1[C@H](O)CC1[C@@]3(C)CC[C@H](O)C(C)(C)C3[C@@H](O[C@@H]3O[C@H](CO)[C@@H](O)[C@H](O)[C@H]3O[C@@H]3OC[C@@H](O)[C@H](O)[C@H]3O)C[C@]12C (stereo partly drawn)	0%	-15%	2.78%	-27.5%	-12.8%
CC(C)[C@@H]1Nc2ccc(C(=O)O)cc2[C@@H]2C=CC[C@@H]21	-26.2%	2.34%	-0.735%	6.93%	-6.66%
CC1CCN(S(=O)(=O)c2ccc3c(ccn3CC(=O)NCc3cccc(Cl)c3)c2)CC1	3.42%	0%	3.25%	-1.47%	-0.818%
CCC(C)NC(=O)c1ccc2c(=O)n(CC(C)C)c3nn(CC(=O)Nc4ccccc4C)c(=O)n3c2c1 (stereo not drawn)	5.42%	0%	11.8%	-0.163%	1.07%
Cc1ccc(N2C(=O)c3nc4ccccc4n3CC2(C)C(=O)NC2CCC(C)CC2)cc1 (stereo not drawn)	-6.26%	-2.33%	2.31%	-1.72%	-4.02%
